# Counter-ions that a name gives are not always drawn. Whole data set: some 2,800 compounds, median “cell viability relative to vehicle” near 0.98, cut for the lowest 2% near 0.45. Some of the results follow.
# System: NCI-H2228 alectinib-DTP
# Assay: cell viability relative to vehicle (fraction of vehicle); NCI-H2228 is an ALK-positive lung cancer line and DTP means drug-tolerant persister; higher = less growth inhibition
# Details: 100 nM; treatment time 6 days
# Method in brief: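 Values give cell viability as a fraction of vehicle-treated cells. Parental and drug-tolerant persister NCI-H2228 cells (persisters made with 1000 nM of a targeted drug for 13 days) were exposed in 384-well plates to the 3114-agent TargetMol anti-cancer compound library at 100 nM, with DMSO as vehicle. ATP was then read after 6 days by the CellTiter-Glo 3D Cell Viability Assay.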
row,Structure (SMILES),cell viability
1,CC(C)Cc1ccc(C(C)C(=O)O)cc1 (stereo not given) [Ibuprofen],0.909
2,OCc1ccccn1 [2-(Hydroxymethyl)pyridine],1.12
3,CN(C(=O)c1c(O)c2ccccc2n(C)c1=O)c1ccccc1 [Roquinimex],1.11
4,COC(=O)[C@]12CCC(C)(C)C[C@H]1[C@H]1C(=O)C=C3[C@@]4(C)C=C(C#N)C(=O)C(C)(C)[C@@H]4CC[C@@]3(C)[C@]1(C)CC2 [Bardoxolone Methyl],0.967
5,COc1cc2ncnc(Nc3ccc(F)c(Cl)c3)c2cc1OCCCN1CCOCC1 [Gefitinib],0.881
6,CN1CCN(c2nc(C3=C(c4c[nH]c5ccccc45)C(=O)NC3=O)c3ccccc3n2)CC1 [Sotrastaurin],0.997
7,CC(C(=O)O)c1ccc(C(=O)c2cccs2)cc1 (stereo not given) [Suprofen],1.04
8,O=C(c1ccc(OCCCc2c[nH]cn2)cc1)C1CC1 [Ciproxifan],0.917
9,CCOc1ccc(NC(C)=O)cc1 [Phenacetin],1.03
10,CN1CCC[C@@H]1CCO[C@](C)(c1ccccc1)c1ccc(Cl)cc1 [Clemastine fumarate],1.19
11,CC[N+](CC)(CC)CCOc1cccc(OCC[N+](CC)(CC)CC)c1OCC[N+](CC)(CC)CC [Gallamine triethiodide],1.05
12,CC(C)(C)NCC(O)c1cc(O)cc(O)c1 (stereo not given) [Terbutaline Sulfate],0.827
13,COc1cc2ncnc(Nc3ccccc3)c2cc1OC,0.886
14,CN(C)CCCCC(=O)Nc1ccc(NC(=S)NC(=O)c2ccc(C(C)(C)C)cc2)cc1 [Tenovin-6],0.905
15,O=c1cc(-c2ccc(O)cc2)oc2cc(O)c(O)c(O)c12 [Scutellarein],0.904
16,C=C(c1ccc(C(=O)O)cc1)c1cc2c(cc1C)C(C)(C)CCC2(C)C [Bexarotene],0.906
17,CCc1oc2ccccc2c1C(=O)c1cc(Br)c(O)c(Br)c1 [Benzbromarone],1.1
18,Cn1cc(-c2ccc(S(=O)(=O)n3ccc(/C=C/C(=O)Nc4ccccc4N)c3)cc2)cn1 [4SC-202 tosylate],0.942
19,O=c1[nH]nc(Sc2ncc([N+](=O)[O-])s2)n1-c1ccc2c(c1)OCCO2,0.97
20,NCc1ccc(S(N)(=O)=O)cc1 [Mafenide hydrochloride],1.03

row,Structure (SMILES),cell viability
1,Cc1c[nH]c(/C=C2\C(=O)Nc3ccccc32)c1CCC(=O)O,0.947
2,CCOC(=O)c1[nH]c2cc(Cl)ccc2c1C(C(=O)NC(C)(C)C)N(C=O)Cc1ccc(Cl)cc1 (stereo not given),1.07
3,O=C1Nc2ccccc2/C1=C/c1ccc(F)cc1,1.04
4,CC(COc1ccccc1)NC(C)C(O)c1ccc(O)cc1 (stereo not given) [Isoxsuprine hydrochloride],0.996
5,CC(C)(C)c1ccc(C(O)CCCN2CCC(C(O)(c3ccccc3)c3ccccc3)CC2)cc1 (stereo not given) [Terfenadine],0.871
6,Cc1ccc2c(=O)c3cccc(CC(=O)O)c3oc2c1C,1.01
7,C=C1/C(=C\C=C2/CCC[C@]3(C)[C@@H]([C@H](C)/C=C/[C@H](C)C(C)C)CC[C@@H]23)C[C@@H](O)C[C@@H]1O [Doxercalciferol],0.866
8,CC(C(=O)O)c1ccc2c(c1)CC(=O)c1ccccc1S2 (stereo not given) [Zaltoprofen],1.09
9,CN(C)c1ccc(C(=C2C=CC(=[N+](C)C)C=C2)c2ccc(N(C)C)cc2)cc1 [Crystal Violet],0.901
10,CC(=O)[C@H]1CC[C@H]2[C@@H]3CC=C4C[C@@H](O)CC[C@]4(C)[C@H]3CC[C@]12C [Pregnenolone],0.951
11,Cc1nc(-c2ccc(OCC(C)C)c(C#N)c2)sc1C(=O)O [Febuxostat],1.12
12,COc1cc(O)c2c(=O)cc(-c3ccc(O)cc3)oc2c1 [Genkwanin],1.15
13,CC(C)c1ccc2c(c1)c(SC(C)(C)C)c(CC(C)(C)C(=O)O)n2Cc1ccc(Cl)cc1,1.06
14,Cn1cc(-c2cc(Oc3cc(F)c(NC(=O)C4(C(=O)Nc5ccccc5)CC4)cc3F)ccn2)cn1,1.06
15,CCN1CCN(Cc2ccc(-c3cc4c(N[C@H](C)c5ccccc5)ncnc4[nH]3)cc2)CC1,0.839
16,Cc1nc(Nc2ncc(C(=O)Nc3c(C)cccc3Cl)s2)cc(N2CCN(CCO)CC2)n1 [Dasatinib monohydrate],0.489
17,Cc1nc(Nc2ncc(C(=O)Nc3c(C)cccc3Cl)s2)cc(N2CCN(CCO)CC2)n1 [Dasatinib],0.348
18,CCN(CCO)CCCC(C)Nc1ccnc2cc(Cl)ccc12 (stereo not given) [Hydroxychloroquine sulfate],0.922
19,COc1cc(N2CCC(N3CCN(C)CC3)CC2)ccc1Nc1ncnc(Nc2ccccc2S(=O)(=O)C(C)C)n1,0.933
20,NC(=O)c1ccc[n+]([O-])c1 [Nicotinamide-N-oxide],1.17
